Sequences with one replicate were seen in a single cluster, so their values are uncertain.
System: ATP
Experiment: switch fluorescence ratio, 500 uM ATP over buffer (Cy3 cluster intensity, sum of 5 cycles each) (fold (ratio)); higher = stronger signal-on switching upon ATP binding; sequences stand for … in TCGTCGGCAGCGTCAGATGTGTATAAGAGACAGTTTTTTTTTTTTTTTTTTTTTTTTT…TC
Details: aptamer strand: ATP DNA aptamer (quencher-CACCTGGGGGAGTATTGCGGAGGAAGG + anchor), 100 nM annealed; ATP concentration: 500 uM; one replicate
Procedure, shortened: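 Per cluster, summed Cy3 intensity from the target cycles was divided by that from the buffer cycles to give the fluorescence ratio, then averaged per switch-domain sequence. Clusters outside 100-1000 RFU were excluded. The Cy3-labelled switching-strand clusters, on a modified Illumina MiSeq flow-cell, were annealed to 100 nM quencher-labelled ATP aptamer and imaged in selection buffer, then after 15 min with 500 uM ATP at 22 °C, for five cycles with NaOH stripping and re-annealing between them.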
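Further: ATP exposure 15 min at 22 °C before imaging.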

| Sequence | switch fluorescence ratio |
| --- | --- |
| GACACTCAAG | 1.02 |
| TAAGCCAGCT | 0.981 |
| GATCAGACGA | 0.94 |
| CCCTTGAACA | 1.02 |
| GCCGGATTCT | 1.03 |
| TACTAGTTTG | 1.01 |
| ACCACTGTAC | 1.6 |
| GTTGGCCGAG | 0.986 |
| GAGCAGTGTC | 1.07 |
| CCATGAGGCG | 1.03 |
| ACGGTAGAGA | 1.05 |
| CTTGGATCTT | 0.98 |
| AGGGGCATG | 0.993 |
| ACGCAGATTA | 1.16 |
| GAGGGATATG | 0.975 |
| TCTACTTGGT | 0.977 |
| CGGAGTGTTA | 1.13 |
| ATCCTTCCGG | 1.79 |
| AATATAAAAC | 1.02 |
| ACTACTTTGG | 0.972 |
| AAGATGGGCG | 1.03 |
| TTCGCCCTCG | 1.02 |
| GTGGGCGGTT | 0.981 |
| TCGTACACTT | 1 |
| GGGGATCTT | 0.994 |
| ATAGTTCACG | 0.97 |

| Sequence | switch fluorescence ratio |
| --- | --- |
| GAGAGTCTGG | 0.937 |
| CGGTAGGGAG | 0.957 |
| CCAAGTACTC | 1.6 |
| AGAATGGTGC | 1.05 |
| CCAGATAGGG | 1.04 |
| GCCACCTTCA | 1.61 |
| TCAGAGTTTC | 0.978 |
| GCTTCACGCA | 1.03 |
| CGGAGTATGA | 1.08 |
| CCTAAATGGT | 1.01 |
| ATTCCAAGGG | 1.04 |
| TCTGTCGGAG | 1.09 |
| AACTACTGAT | 1.03 |
| CCTGTTGACG | 1.01 |
| CATGGACGGG | 1.09 |
| CCGAAACCAG | 1.13 |
| ATTACCTTAG | 1.06 |
| CTCCAAGTTC | 1.59 |
| TAAGAAGGTA | 1.01 |
| AACCGATTTT | 0.995 |
| TTTTACAGGA | 0.998 |
| GAGGCGTAG | 1.02 |
| TGCCCAATCT | 1.07 |
| GGGCCGGCTT | 1.02 |
| AAGAGGAAAG | 1.03 |
| TGCAGGACGG | 1.02 |

| Sequence | switch fluorescence ratio |
| --- | --- |
| ATACATGGTA | 0.979 |
| TTATCCCGGG | 1.01 |
| GAGAAAACAG | 0.941 |
| GGGGATTAGC | 0.979 |
| AATTTAAAGA | 1.02 |
| TGAGAGCCCG | 1.01 |
| GGGCGTCGTG | 0.994 |
| CGAGTGAAGG | 0.989 |
| TTAAGAGTAC | 1.03 |
| CCAGGACGGT | 0.984 |
| ATTTACCATG | 1.01 |
| TGTGAACGGT | 0.987 |
| GCATCCTTGT | 1.01 |
| ACACGCGGAG | 0.991 |
| AATTGAACCG | 1.06 |
| TGCCCCCGTG | 1.73 |
| TAATATAAAG | 0.978 |
| TAGCGAGCT | 1.01 |
| CCAGCGAGTA | 1.04 |
| GAGGGCCGCT | 1.06 |
| AGATCAGTTG | 0.998 |
| AGTGAGTCGC | 1.03 |
| GATTGTGTAC | 1.05 |
| GGTTCTAGGT | 1.01 |

— the supplement of paper PMC10126150
